Measured values taken from article PMC4263322.
Results are given in words; binding and its absence hold for the method and conditions named. In cells and extracts the contact can be indirect. Some entries that bind do so weakly or less than the wild type.

The chains behind the UniProt entries cited, without tags or fusion partners.
UniProt P06748: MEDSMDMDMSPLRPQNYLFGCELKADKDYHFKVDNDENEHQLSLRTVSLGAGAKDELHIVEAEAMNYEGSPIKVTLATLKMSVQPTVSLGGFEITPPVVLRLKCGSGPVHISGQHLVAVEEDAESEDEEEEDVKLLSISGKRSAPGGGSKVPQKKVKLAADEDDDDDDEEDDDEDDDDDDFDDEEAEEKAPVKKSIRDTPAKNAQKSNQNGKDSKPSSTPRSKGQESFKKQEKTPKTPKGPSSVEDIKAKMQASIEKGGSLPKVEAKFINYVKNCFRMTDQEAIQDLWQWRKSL

Experiments:
[1] = target: T1, polη expressed ectopically in XPV cells complemented with the POLH gene (human) (UniProt Q9Y253); assay: proximity ligation; fixed, permeabilised unirradiated cells (MRC5sv; XPV cells complemented with POLH); rabbit anti-polη and mouse anti-NPM1 with PLA probes
T1 sequence: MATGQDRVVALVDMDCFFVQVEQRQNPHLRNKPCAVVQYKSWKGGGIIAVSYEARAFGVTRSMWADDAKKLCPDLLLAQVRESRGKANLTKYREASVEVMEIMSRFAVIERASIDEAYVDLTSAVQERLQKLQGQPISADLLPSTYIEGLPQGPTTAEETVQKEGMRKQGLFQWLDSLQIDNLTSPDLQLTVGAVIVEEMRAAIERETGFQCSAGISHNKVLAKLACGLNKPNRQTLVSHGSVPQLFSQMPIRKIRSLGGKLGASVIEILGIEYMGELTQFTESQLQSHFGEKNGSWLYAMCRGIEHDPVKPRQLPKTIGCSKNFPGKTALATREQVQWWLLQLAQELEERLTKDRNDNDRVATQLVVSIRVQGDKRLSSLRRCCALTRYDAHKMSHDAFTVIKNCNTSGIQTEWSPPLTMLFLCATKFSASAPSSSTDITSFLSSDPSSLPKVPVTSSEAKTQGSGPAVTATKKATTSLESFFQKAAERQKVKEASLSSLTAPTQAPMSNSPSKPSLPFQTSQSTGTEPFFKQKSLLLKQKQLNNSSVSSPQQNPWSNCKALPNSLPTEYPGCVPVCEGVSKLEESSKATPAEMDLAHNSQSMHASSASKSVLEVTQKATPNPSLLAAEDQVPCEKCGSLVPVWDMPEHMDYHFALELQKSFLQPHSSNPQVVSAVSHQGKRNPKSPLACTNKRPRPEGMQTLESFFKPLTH

[2] = target: T2, DNA polymerase-η (polη) (human (endogenous in MRC5sv)) (UniProt Q9Y253); assay: as above
T2 sequence: T1 sequence

[3] = target: T2, DNA polymerase-η (polη) (human (endogenous in MRC5sv)); assay: condition: only transiently after ultraviolet irradiation of the cells (10 J m^-2); co-IP; endogenous proteins extracted from MRC5sv cells at different time points after ultraviolet irradiation with 10 J m^-2
[4] = target: T2, DNA polymerase-η (polη) (human (endogenous in MRC5sv)); assay: condition: only transiently after ultraviolet irradiation of the cells (10 J m^-2); proximity ligation; MRC5sv cells ultraviolet irradiated with 10 J m^-2 at time points before fixation; rabbit anti-polη and mouse anti-NPM1 with PLA probes
[5] = target: T2, DNA polymerase-η (polη) (human (endogenous in MRC5sv)); assay: co-IP; endogenous proteins in extracts of unirradiated MRC5sv cells; IP with rabbit anti-polη (H300), blot for NPM1; Triton lysis buffer (20 mM Tris-Cl pH 7.5, 150 mM NaCl, 0.5 mM EDTA, 10% glycerol, 1% Triton X-100), final washes with lysis buffer that also contained 250 mM NaCl

binding [1]: binds
binding [2]: binds
binding [3]: no binding
binding [4]: no binding
binding [5]: binds
Substance: nucleophosmin (NPM1) (from UniProt P06748 1-294)
